Data reported in PubChem BioAssay AID1466 (National Center for Advancing Translational Sciences (NCATS), 2008).
In all, about 200,000 compounds went through this assay and about 10 (0.005%) were called active. Inconclusive means that the source gave no clear call. Such entries were picked first, then a sample of the others. Calls follow the shape of the dose curve; as a rule, active = well fitted inhibition curve with a large enough effect; inconclusive = small, poorly fitted or top-dose-only effect, or effect the other way, or another doubt; inactive = no such curve, though single readings can be large or run the other way. Potencies of inconclusive entries are left out as doubtful fits.

These compounds were tested against Lysosomal alpha-glucosidase (Homo sapiens) (UniProt P10253) (assay: qHTS Assay for Inhibitors of Human alpha-Glucosidase as a Potential Chaperone Treatment of Pompe Disease). Conditions: purified human GAA, 4-MU-alpha-glucoside fluorescence; activity change, negative = inhibition: at 76.9 µM (top of the series) unless noted.
Outline: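 Enzyme (4 nM final) mixed with compound (up to 77 uM), then 4-MU-alpha-D-pyranoside (400 uM final) added; 20 min at room temperature, pH 5.0. Reaction stopped at pH 10, fluorescence read, AC50 derived by Hill fit.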
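For activity change, negative = inhibition in this document: plate controls were uninhibited enzyme wells for no effect and no-enzyme background for full effect.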
Potency is read from the fitted curve at half-maximal effect; tags tell the direction and shape of the fitted curve.

Compound | Potency | activity change, negative = inhibition
N#Cc1cc2c(=O)n3ccccc3nc2n(CCCN2CCOCC2)c1=O | inconclusive [activator, partial curve] | 
Cc1nc2c(-c3ccc(F)cc3)c(C)nn2c(C)c1CCC(=O)N1CCN(c2ccc(F)cc2)CC1 | inconclusive [activator, partial curve] | 
CS(=O)(=O)N(CCc1ccccc1)CC(=O)NCc1ccc(Cl)cc1 | inconclusive [inhibitor, single point] | 
COC(=O)c1cccc(S(=O)(=O)N2CCC(n3nnc4cc(F)ccc43)CC2)c1 | inconclusive [inhibitor, partial curve] | 
COc1ccc(-n2c(Cc3cccn3C)nnc2SCC(=O)Nc2ccccc2)cc1 | inconclusive [inhibitor, single point] | 
Cc1ccc(CSc2nc3c(c(SCC(=O)O)n2)CCCC3)cc1 | inconclusive [inhibitor, partial curve] | 
Cc1nn(Cc2cccc(C(=O)Nc3ccn(Cc4ccccc4)n3)c2)c(C)c1[N+](=O)[O-] | inconclusive [inhibitor, single point] | 
O=C(c1ccc(CS(=O)(=O)c2ccc(Br)cc2)o1)N1CCN(c2ccccn2)CC1 | inconclusive [inhibitor, single point] | 
N/C(=N\OC(=O)Cc1ccc([N+](=O)[O-])cc1)c1ccccn1 |  | inactive: -2.82%
CCOC(=O)C1(CC2CCCCO2)CCN(Cc2cn[nH]c2-c2cccc(F)c2)CC1 (stereo not given) | inconclusive [inhibitor, partial curve] | 
C/C(=N\NC(=O)c1c(Cl)c(C)nn1C)c1cccc(NC(=O)COc2ccc(Cl)cc2)c1 | inconclusive [inhibitor, single point] | 
CC(C)CC(=O)N1CCN(S(=O)(=O)c2ccc3ccccc3c2)CC1 | inconclusive [inhibitor, single point] | 
COc1ccccc1-c1cc(C(=O)NCCc2ccccc2)no1 | inconclusive [inhibitor, full curve, poor fit] | 
Cc1ccc(NC(=O)c2ccccc2F)nc1 | inconclusive [activator, single point] | 
COc1ccc(S(=O)(=O)Nc2cccnc2)c(Cl)c1Cl |  | inconclusive: 13.8% [activator]
c1nc(NCCN2CCOCC2)c2sc3nc(N4CCOCC4)c4c(c3c2n1)CCC4 | inconclusive [inhibitor, single point] | 
CC1CCC(NC(=O)Cn2c3c(c(-c4ccccc4Cl)cc2=O)CCC3)CC1 (stereo not given) | inconclusive [inhibitor, partial curve, poor fit] | 
O=C(Nc1ccc(F)cc1)Nc1ccc(N2CCOCC2)c2nonc12 | inconclusive [inhibitor, full curve] | 
CC(NC(=O)c1cc(-c2ccc3c(c2)OCO3)nc2ccccc12)C(C)(C)C (stereo not given) | inconclusive [activator, single point] | 
CCOC(=O)c1sc(NC(=O)CSc2nncs2)c(C(=O)OCC)c1C | inconclusive [inhibitor, partial curve, poor fit] | 

Compound | Potency | activity change, negative = inhibition
CCOC(=O)Cc1csc(SCC(=O)N2CCN(c3ccc(OC)cc3)CC2)n1 | inconclusive [inhibitor, single point] | 
Cc1ccc2nc3c(cc(C#N)c(=N)n3Cc3cccnc3)c(=O)n2c1 |  | inconclusive: 15.2% [activator]
Cc1ccc(C(=O)N2CCN(c3ccccc3Cl)CC2)cc1[N+](=O)[O-] | inconclusive [inhibitor, partial curve] | 
CCOCCCn1c(=NC(=O)c2cccnc2)c(C(=O)OCC)cc2c(=O)n3ccccc3nc21 | inconclusive [activator, partial curve] | 
O=C(/C=C/c1ccc(N2CCCCC2)c([N+](=O)[O-])c1)c1ccc(S(=O)(=O)N2CCCC2)cc1 | inconclusive [inhibitor, partial curve] | 
COc1ccc(N/C(=N/c2nc(C)cc(C)n2)NC(=O)Nc2ccc(Cl)c(Cl)c2)c(OC)c1 | inconclusive [inhibitor, partial curve, poor fit] | 
O=C(Nc1nc(COc2ccccc2)cs1)C12CC3CC(CC(C3)C1)C2 | inconclusive [inhibitor, single point] | 
Cc1ccc2nc(-c3ccc(NC(=S)NC4CC(C)(C)NC(C)(C)C4)cc3)sc2c1 | inconclusive [activator, partial curve, poor fit] | 
CC(C)CC(=O)c1c[nH]c(C(=O)NCCCN2CCOCC2)c1 | inconclusive [inhibitor, full curve, poor fit] | 
CCCN1C(=O)/C(=C/c2ccccc2OCc2ccc(C(=O)O)cc2)NC1=S | inconclusive [activator, single point] | 
CCCN(CCC)CCCNC(=O)c1ccc2c(c1)N(CC)C(=O)c1ccccc1S2=O (stereo not given) | inconclusive [inhibitor, single point] | 
CC1CCCC(C)N1S(=O)(=O)c1ccc(NC(=O)CCn2cnc3ccccc3c2=O)cc1 (stereo not given) | inconclusive [inhibitor, full curve, poor fit] | 
N#Cc1c(SCC(=O)OCc2ccccc2)nsc1SCC(=O)OCc1ccccc1 | inconclusive [inhibitor, single point] | 
O=C(c1ccc(S(=O)(=O)N2CCOCC2)cc1)N1CCN(C2=NS(=O)(=O)c3ccccc32)CC1 | inconclusive [inhibitor, partial curve, poor fit] | 
CC1(C)C2CCC1(C)C(NC1=NCCC1)C2 (stereo not given) | inconclusive [inhibitor, single point] | 
O=C(CCCC(=O)OCC(=O)NC1CCCC1)Nc1ccccn1 | inconclusive [inhibitor, single point] | 
CC1Cc2cc(/C(O)=C3/C(=O)C(=O)N(CCCN(C)C)C3c3ccncc3)ccc2O1 (stereo not given) |  | inactive: -2.4%
O=C(OCc1csc(-c2ccccc2)n1)c1ccccc1O | inconclusive [inhibitor, single point] | 
CCOC(=O)c1ccc2c(c1)nc(SCC(=O)N1CCCCC1)n2CC | inconclusive [inhibitor, single point] | 
CC(C(=O)NC(=O)NC1CCCCC1)N1CCN(C(c2ccccc2)c2ccccc2)CC1 (stereo not given) | inconclusive [inhibitor, full curve, poor fit] | 

Compound | Potency | activity change, negative = inhibition
COc1ccc2cc(C#N)c(Cl)nc2c1 |  | inconclusive: 18.3% [activator]
COc1ccc(C(=O)OC(C)C(=O)Nc2cc(C(F)(F)F)ccc2Cl)c(OC)c1OC (stereo not given) | inconclusive [inhibitor, partial curve] | 
Cn1c(-c2cccc([N+](=O)[O-])c2)cnc1NCc1ccc(C#N)cc1 |  | inconclusive: 12.1% [activator]
Nc1cc2c(cc1O)CCCC2 | inconclusive [inhibitor, single point] | 
CC1=CN2C(=NC(=O)CC2(C)C(=O)N(CC(=O)NC2CCCC2)c2cc(C)cc(C)c2)C=C1 (stereo not given) | inconclusive [activator, partial curve] | 
COc1ccc(Nc2oc(-c3ccccc3F)nc2C#N)cc1 | inconclusive [activator, single point] | 
O=C(c1ccco1)[C@@H]1[C@@H]2C(=O)N(c3ccc(F)cc3)C(=O)[C@@H]2C2c3ccccc3C=CN21 (stereo not given in full) | inconclusive [inhibitor, single point] | 
CC1(C)CC2CC(C)(CN2C(=O)COC(=O)Cn2[nH]c(=O)c3ccccc3c2=O)C1 (stereo not given) | inconclusive [inhibitor, single point] | 
CCN1CCCC1CNC(=S)Nc1ccc(C(C)=O)cc1 (stereo not given) | inconclusive [activator, full curve, poor fit] | 
O=C(CN(C(=O)CSc1nc2ccccc2o1)c1cccc(F)c1)NC1CCCCC1 | inconclusive [activator, full curve, poor fit] | 
C=CCNC(=O)CC(=O)N/N=C/c1ccc(F)cc1 | inconclusive [inhibitor, full curve, poor fit] | 
O=c1[nH][nH]c(C(F)(F)F)c1/C=N/N1CCOCC1 |  | inconclusive: -16.2% [inhibitor]
O=C(/C=C/c1ccccc1Cl)NC1CCS(=O)(=O)C1 (stereo not given) |  | inconclusive: 15.1% [activator]
CC(C)N1CCc2[nH]c(=S)[nH]c(=O)c2C1 | inconclusive [inhibitor, single point] | 
COc1ccc2nc(NC(=O)c3ccccc3-c3ccccc3C(=O)O)sc2c1 |  | inconclusive: 5.46% [activator]
COc1ccc(-n2cc(CNCCc3nc(C)cc(C)n3)c(-c3ccccc3Cl)n2)cc1 |  | inactive: 13.5%
O=c1oc2cc(O)ccc2cc1-c1ccc(F)cc1 | inconclusive [activator, partial curve] | 
O=S(=O)(Nc1ccc(-c2nc3cccnc3s2)cc1)c1cccs1 |  | inconclusive: 385% [activator]
Cc1cc(C)c(C2=CSC3=NS(=O)(=O)CCN23)c(C)c1 | inconclusive [inhibitor, single point] | 
CCCn1c(SCC(=O)Nc2nnc(CC)s2)nc2c1c(=O)n(C)c(=O)n2C | inconclusive [inhibitor, partial curve, poor fit] | 
